This is an account of results in PubChem BioAssay AID1240 (Sanford-Burnham Center for Chemical Genomics, 2008).

Structures are written as SMILES. Out of some 50,000 compounds screened, about 800 (1.6%) showed an effect of 50% or more. Some of the results follow.

In this test the target is Bcl-2-like protein 10 (Homo sapiens) (UniProt Q9HD36). In words: TR3 peptide-Bcl-B binding displacers, biochemical primary FP assay, phenotype converters (AID 1240).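 Further: 0% = Bcl-B with tracer peptide and DMSO and 100% = tracer peptide lacking Bcl-B.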 As to conditions: GST-Bcl-B / FITC-TR3 peptide fluorescence polarization; stronger effect = higher value; compound at 3.75 mg/L.
Sequence of UniProt Q9HD36 (Q9HD36 whole entry, looked up): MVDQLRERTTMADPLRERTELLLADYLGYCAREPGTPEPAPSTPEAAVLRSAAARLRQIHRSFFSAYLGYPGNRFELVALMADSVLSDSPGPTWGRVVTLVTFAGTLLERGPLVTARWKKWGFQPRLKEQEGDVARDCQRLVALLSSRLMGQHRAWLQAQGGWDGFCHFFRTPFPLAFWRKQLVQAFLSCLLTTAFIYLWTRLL
For `O=C(Nc1nnc(SCc2ccc(F)cc2)s1)c1ccccc1Br`, the displacement was -7.2%.
Under `NC(=O)C1CCN(S(=O)(=O)c2ccc(Cl)cc2)CC1` stands 12.2%; under `O=C(NCCN1CCCCC1)c1cc2ccccc2o1`, 10.5%; under `COc1cc(C2C3=C(CC(C)(C)CC3=O)NC3=C2C(=O)CC(C)(C)C3)ccc1OCc1ccccc1`, -18%.
For `O=C(Nc1ccc(OC(F)(F)F)cc1)c1ccccc1I`, the displacement was -5.9%.
The figure for `CCOC(=O)C1=C(c2ccccc2)S/C(=C2/C(=S)C(C)(C)N(C(C)=O)c3ccc(OC)cc32)S1` is 2.4%.
Under `CCc1ccccc1NC(=O)c1ccc2c(c1)OCO2` stands 3.3%; under `O=C(CN(c1ccc(Br)cc1)S(=O)(=O)c1ccccc1)NC1CC2CCC1C2` (stereo not drawn), -0.2%; under `Cc1ccc(CNC(=O)C(=O)Nc2cc(Cl)ccc2C)cc1`, 3.9%.
As to `C=CCc1ccccc1OCC(=O)NN`, the displacement is 7.4%.
Turning to `NC(=O)N/N=C1\c2ccccc2-c2c(C(N)=O)cccc21`, the displacement was 1.9%.
Under `O=C1CC(c2ccc(Cl)cc2)CC2=C1C(c1ccccc1C(F)(F)F)Nc1ccccc1N2` (stereo not drawn) stands 15.5%; under `O=C1CC(c2ccc(Cl)cc2)c2cc(Br)c3ccccc3c2N1` (stereo not drawn), -10.4%; under `O=C(NNc1nc(-c2ccccc2)cc(-c2ccc(F)cc2)n1)c1cccc([N+](=O)[O-])c1`, 7.2%.
Turning to `Cc1ccc(C(=O)N2CCN(c3ccc(Cl)cc3[N+](=O)[O-])CC2)cc1`, the displacement stood at 12.8%.
The figure for `COc1ccc(NC(=O)CCC2CCCCC2)cc1` is 15.9%; for `O=C(Nc1ccc(Cc2ccncc2)cc1)c1cc(Br)ccc1I` it is -13.6%.
Under `O=C(Nc1ccc(-c2nc3ccccc3o2)c(O)c1)c1cccnc1` stands 33.2%; under `CSCCC(NC(=O)/C(=C\c1ccc(Cl)cc1)NC(=O)c1ccccc1)C(=O)O` (stereo not drawn), -21.2%; under `COc1ccccc1NC(=O)c1cc(Nc2ccc(F)c(F)c2)nc2ccccc12`, 19.9%.
The figure for `O=C(c1cc(Cl)ccc1Cl)N(Cc1ccccc1)c1ccccn1` is 11%; for `Cc1cc(Br)ccc1S(=O)(=O)n1ccnc1C` it is 9%; for `COc1ccc(C(c2cc(C(C)(C)C)c(O)c(C(C)(C)C)c2)N2CCOCC2)cc1` (stereo not drawn) it is -7.4%.
For the compound `CCCOC(=O)c1ccc(NC(=O)c2cccc3ccccc23)cc1`, the displacement was -24.6%.
The figure for `COc1ccc(NC(=O)COc2ccc(-c3ccccc3)cc2)c([N+](=O)[O-])c1` is 34.5%.
Under `Brc1ccc(CN2CCN(C3CCN(Cc4ccccc4)CC3)CC2)cc1` stands -15.5%; under `O=C(CSc1nc2sc3c(c2c(=O)[nH]1)CCCC3)N1CCOCC1`, -17.8%.
Take `CC(=O)c1ccc(Nc2nc(NCCO)nc(OC(C(F)(F)F)C(F)(F)F)n2)cc1`: the displacement is 18.1%.
In the case of `O=C(Nc1nc(-c2ccc(Cl)cc2Cl)cs1)c1cccc(Cl)c1`, the displacement worked out at 1.6%.
For `CC(C)c1ccc(N=Cc2ccc(OC3CSC3)cc2)cc1`, the displacement came out at 2.6%.
As for `O=C1NC(=Nc2ccc(O)cc2)S/C1=C/C(Cl)=C/c1ccc([N+](=O)[O-])cc1`, the displacement is 9.5%.
Under `CCOc1ccc2nc(SC3CC(=O)N(c4ccc(OC)cc4)C3=O)sc2c1` (stereo not drawn) stands -4%; under `O=C1c2ccc(Oc3ccc([N+](=O)[O-])cc3)cc2C(=O)N1CCCO`, 8.6%; under `Clc1ccc(/C=C/C=Nc2cccc(-c3nc4ccccc4o3)c2)cc1`, 25.8%.
For `COc1ccc(S(=O)(=O)Nc2ccc(I)cc2)cc1OC`, the displacement worked out at 14.1%.
The figure for `Cc1c(NC(=O)c2ccc3ccccc3n2)c(=O)n(-c2ccccc2)n1C` is 13.8%; for `CC1(C)CC(N2CN=C(N)N(C#N)C2)CC(C)(C)N1` it is 7.3%; for `CS(=O)(=O)N(Cc1ccc(C(=O)Nc2ccc3c(c2)OCO3)cc1)c1ccccc1` it is 0.1%.
Under `Cc1cc(-n2c(C)cc(C=O)c2C)ccc1Br` stands 1.6%.
Take `CC(C)OC(=O)c1ccc(NC(=O)C(C(C)C)N2C(=O)c3ccccc3C2=O)cc1` (stereo not drawn): the displacement is -3.7%.
The figure for `N#Cc1c(NC(=O)c2ccc(C(=O)O)cc2C(=O)O)sc2c1CCCC2` is 11%; for `CCOc1ccccc1OCCN1CCCC1` it is -0.6%; for `C=CCn1c(-c2ccccc2)n[nH]c1=S` it is -1%.
The figure for `CSc1ccccc1NC(=O)c1c(F)cccc1F` is 4.2%; for `Cc1ccc(C(=O)Nc2ccc(NC(=O)c3ccco3)c(Cl)c2)cc1C` it is -8.9%; for `Cc1ccc(-c2cc(C(=O)O)c3cc(Br)ccc3n2)cc1` it is 16.2%.
Under `CC(C)Oc1ccccc1NC(=O)c1ccc(Cl)cc1Cl` stands 11%; under `CNC(=S)C1COc2ccccc2O1` (stereo not drawn), 11.1%; under `COc1ccc(Oc2coc3cc(OS(C)(=O)=O)ccc3c2=O)cc1`, -7.7%.
For `C=CCNC(=O)CN(c1ccccc1)S(=O)(=O)c1ccccc1[N+](=O)[O-]`, the displacement stood at 2.8%.
Under `COc1cc2c(cc1CN1CCN(C(=O)CC(C)C)CC1)OCO2` stands -8.9%; under `COC(=O)COc1ccc(/C=C2\C(=O)NC(=O)N(c3ccc(C(C)C)cc3)C2=O)cc1OC`, -19.5%.
For the compound `O=C(COc1ccc([N+](=O)[O-])cc1)Nc1ccc2oc(-c3ccc(Br)cc3)nc2c1`, the displacement was -2.5%.
On to `O=C(Nc1cccnc1)c1cccc(C(=O)Nc2cccnc2)c1`, for which the displacement is 0.2%.
For `NC(=S)N/N=C/c1cccn1-c1ccc([N+](=O)[O-])cc1`, the displacement was -1%.
Under `O=C1CCC(C(=O)NCc2cccnc2)N1` (stereo not drawn) stands 4.5%; under `O=C(O)CSc1nnc(C2COc3ccccc3O2)n1-c1ccccc1` (stereo not drawn), 9.4%.
As to `CN1C(=O)c2cccc3c(N(C)C)ccc(c23)C1=O`, the displacement was found to be 45.8%.
Under `COc1ccc(C2CC(=O)C3=C(C2)Nc2ccccc2NC3c2cc([N+](=O)[O-])ccc2Cl)cc1OC` (stereo not drawn) stands -6.4%.
The figure for `O=C(Nc1ccccc1C(=O)NCCc1ccccc1)c1ccccc1Cl` is 4%.
As to `COc1ccc(NC(=O)C2C3CCC(C3)C2C(=O)O)c(OC)c1` (stereo not drawn), the displacement was determined as 2.1%.
`COc1ccccc1C/C(N)=N/OC(=O)c1ccc(C(C)(C)C)cc1`: the displacement was -7.4%.
Under `CC(=O)CCc1c(C)[nH]c2c(Cl)cccc2c1=S` stands -0.2%; under `CCN(CC)C(=O)Cc1ccc2c3c(cccc13)CC2`, 12.7%; under `CCOC(=O)C1=C(C)NC2=C(C(=O)CC(c3ccccc3)C2)C1c1ccc(Cl)cc1` (stereo not drawn), 1%.
Under `COc1ccc(/C(O)=C2/C(=O)C(=O)N(CCCCCC(=O)O)C2c2ccc(Cl)cc2)cc1` (stereo not drawn) stands 0.6%; under `Cc1cc(OCC(=O)OC(C)C)c2c(-c3ccccc3)cc(=O)oc2c1`, 8.2%; under `COc1ccc(CC(=O)Nc2ccc(S(=O)(=O)N3CCc4ccccc43)cc2)cc1`, -10.4%.
Turning to `CCOC(=O)c1c(NC(=O)c2ccccc2F)sc2c1CCCC2=O`, the displacement is 7.9%.
In the case of `O=C(Nc1c(C(=O)N2CCOCC2)cnn1-c1ccccc1)c1cccs1`, the displacement worked out at 12.5%.
Under `COc1ccc(C(=O)NC(=S)N2CCSCC2)cc1` stands 9%; under `O=C(NC(Nc1ccc([N+](=O)[O-])cc1)C(=O)c1ccccc1)c1ccco1` (stereo not drawn), 8.1%.
Consider `O=C(Nc1cc(Cl)cc(Cl)c1)c1cccnc1`, for which the displacement is -4%.
Under `COc1ccc(-c2nnc(NC(=O)c3ccccc3F)s2)cc1` stands 10.3%; under `COc1ccc(-c2cc(C(F)(F)F)n3nc(C(=O)Nc4cccc(O)c4)cc3n2)cc1OC`, 0.9%.
In the case of `O=C(c1cccnc1)N1CCN(c2cccc(Cl)c2)CC1`, the displacement is -4.8%.
Under `Cc1c(NS(=O)(=O)c2ccc(F)cc2)c(=O)n(-c2ccccc2)n1C` stands -0.2%; under `CC(C)(C)c1ccc(OCCCCCn2ccnc2)cc1`, 3.2%.
Under `COc1ccc(N(CC(=O)NC(C)c2ccccc2)S(=O)(=O)c2ccccc2)cc1` (stereo not drawn) stands 5.7%; under `Cc1ccc(/C=C2/SC(=O)N(CNc3ccc(Br)cc3C)C2=O)cc1`, 8.8%; under `NC(=O)c1cc(NC(=O)C(F)(F)F)c(Cl)cc1Cl`, 0.6%.
The figure for `COc1ccc(CONc2ncnc3nonc23)cc1[N+](=O)[O-]` is 14.2%; for `CCN1C(=O)/C(=C\c2cccc(O)c2)SC1=S` it is -7.9%.
Regarding `COCCCNC(=O)CN(c1ccc(OC)c(OC)c1)S(=O)(=O)c1ccc(C)cc1`, the displacement amounted to 1.3%.
On to `COc1ccc(Cl)cc1N1C(=O)C2C(c3ccc(Cl)cc3)OC3(C(=O)c4ccccc4C3=O)C2C1=O` (stereo not drawn), for which the displacement was 11%.
Under `Oc1ccccc1/C=N/Nc1nnc2c(n1)[nH]c1ccc(Br)cc12` stands 1.6%.
The figure for `COc1cc(NC(=O)c2ccccc2)c(Cl)cc1NC(=O)c1cc2ccccc2cc1OC` is 13.4%; for `O=C1NC(=S)N/C1=C/c1cc2c(cc1[N+](=O)[O-])OCO2` it is 13.8%.
Under `CCOc1cc(C(=O)Nc2ccc(N3CCOCC3)cc2)cc(OCC)c1OCC` stands 12.3%; under `CC(=Nc1ccccc1C)C1=C(O)CC(C)(C)CC1=O`, -0.9%; under `Cc1ccccc1OCc1nc(-c2ccccn2)no1`, -9.4%.
On to `CC(=O)NC12CC3(C)CC(C)(C1)CC(NC(C)=O)(C3)C2`, for which the displacement was -6.1%.
The figure for `O=C(Nc1ccc(Oc2ccccc2)cc1)C(F)(F)F` is -4.1%; for `CCN(C(C)=O)C1=C(O)c2ccccc2C(=O)C1=O` it is 9%.
`CC1=C(C(=O)OCCCc2ccccc2)C(c2c(F)cccc2Cl)CC(=O)N1` (stereo not drawn): the displacement worked out at 13.6%.
The figure for `Cc1cc(C)n(C(=O)c2c(C(=O)O)cccc2[N+](=O)[O-])n1` is 5.6%.
Under `COC(=O)C1=C(C)NC2=C(C(=O)CC(c3cccs3)C2)C1c1cc(OC)c(OC)c(OC)c1` (stereo not drawn) stands 4.8%; under `COc1ccc(-c2csc(NC(=O)/C=C/c3ccc(OC)c(S(=O)(=O)N4CCCCC4)c3)n2)cc1`, -11.2%; under `COc1cc(C(=O)NC(NC(=S)Nc2ccccc2)C(Cl)(Cl)Cl)cc(OC)c1OC` (stereo not drawn), -5.5%.
On to `COc1cc(/C=C2/SC(=S)N(c3ccccc3)C2=O)cc(Br)c1OC(=O)c1ccc(C)cc1`, for which the displacement was 2.3%.
`COc1cccc(-c2nc3cc(NC(=O)c4cccc(Cl)c4Cl)ccc3o2)c1`: the displacement worked out at 28.6%.
Under `O=C1c2cccc3cccc(c23)C(=O)N1CC1CCN(S(=O)(=O)c2ccc(F)cc2)CC1` stands 10.3%; under `COC(=O)c1cc(NC(=O)Cc2ccc(Br)cc2)cc(C(=O)OC)c1`, -1.3%.
With `O=C(O)/C(=C\C=Nc1ccc(Br)cc1)Nc1ccc(Br)cc1`, the displacement is 6.1%.
With `Cn1c(NN)nc2c(c1=O)C(C)(C)Cc1ccccc1-2`, the displacement was -10.7%.
`COc1ccc2ccccc2c1C=Nc1ccc(C)c(I)c1`: the displacement was -9.7%.
The figure for `COC(=O)c1ccc(/C=C2\SC(=O)N(NC(=O)c3ccc([N+](=O)[O-])cc3)C2=O)cc1` is -4.5%; for `CC(=O)Oc1ccc2ccccc2c1C(NC(=O)Cc1ccccc1)c1ccco1` (stereo not drawn) it is -4.5%.
